The values below come from the BET-seq Pho4 binding data (Le et al. 2018).

This is one part of the list. Values were computed here from the reads of four pooled replicates and scatter widely.

The assay deals with T1, Pho4 (S. cerevisiae) (UniProt P07270).
T1 sequence: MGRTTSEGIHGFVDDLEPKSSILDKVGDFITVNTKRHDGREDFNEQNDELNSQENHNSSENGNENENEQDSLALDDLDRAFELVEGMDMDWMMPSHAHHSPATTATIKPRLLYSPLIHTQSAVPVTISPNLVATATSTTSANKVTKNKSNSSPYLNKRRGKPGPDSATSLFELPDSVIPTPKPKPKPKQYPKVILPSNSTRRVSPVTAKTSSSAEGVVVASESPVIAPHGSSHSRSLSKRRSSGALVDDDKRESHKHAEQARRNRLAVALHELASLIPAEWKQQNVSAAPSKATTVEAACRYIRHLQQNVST
The assay is described as follows: relative binding free energy (BET-seq); higher = weaker binding. The note with it: reference: library average.
Regarding GGGATCACGTGTGGTC, the “relative binding free energy” value came to 0.24 kcal/mol. On to TTTTGCACGTGTGTGG, for which the “relative binding free energy” value is 0.11 kcal/mol. To TAATACACGTGTATTG belongs -0.11 kcal/mol; to TATAGCACGTGCGTAT, -0.13 kcal/mol; to TTAGGCACGTGGGGAA, -0.2 kcal/mol.

With CGGGTCACGTGTATAT, the “relative binding free energy” value was 0.16 kcal/mol. Take CATGTCACGTGGTAGT: the “relative binding free energy” value is -0.01 kcal/mol.

Consider GGTGTCACGTGTATAG, for which the “relative binding free energy” value was determined as 0.17 kcal/mol.

CGTGGCACGTGTGTCG: the “relative binding free energy” value was -0.09 kcal/mol. In the case of GACTACACGTGGTGTG, the “relative binding free energy” value is 0.11 kcal/mol.

Consider AGGTGCACGTGATTTG, for which the “relative binding free energy” value came out at 0.04 kcal/mol. Next, ATGAGCACGTGTAGGG: -0.16 kcal/mol; GGAGTCACGTGTGCGG: 0.09 kcal/mol; GGATGCACGTGTAAGT: 0.1 kcal/mol. To TATCTCACGTGGAGAG belongs 0.28 kcal/mol. As to GTAGCCACGTGGGTCG, the “relative binding free energy” value was -0.16 kcal/mol. Next, ATAAACACGTGTGGGT: -0.01 kcal/mol; AGAAACACGTGGGTTG: -0.04 kcal/mol; ATGGTCACGTGTCTTT: 0.05 kcal/mol. Next, TTGTTCACGTGTTGTC: 0.31 kcal/mol; ACCTACACGTGGGGGG: 0.05 kcal/mol.

As to TTGTTCACGTGATTTG, the “relative binding free energy” value was 0.34 kcal/mol. As to ACCGTCACGTGTTTTT, the “relative binding free energy” value worked out at 0.27 kcal/mol. To GTATACACGTGTTATA belongs 0.04 kcal/mol.

As to AGTTGCACGTGACTGT, the “relative binding free energy” value was 0.05 kcal/mol. Next, AAGTGCACGTGGCAGT: -0.09 kcal/mol; CTGGTCACGTGAATTG: 0.34 kcal/mol. On to GCTCGCACGTGTGTGT, for which the “relative binding free energy” value was -0.1 kcal/mol. To GTTATCACGTGGGCAG belongs 0.08 kcal/mol; to CGGTACACGTGATGTG, 0.17 kcal/mol. Turning to TTGCGCACGTGGAGAG, the “relative binding free energy” value is -0.06 kcal/mol. Regarding GTCATCACGTGATTTG, the “relative binding free energy” value is 0.35 kcal/mol.

Consider CTCTGCACGTGTGTGT, for which the “relative binding free energy” value is 0.01 kcal/mol. Next, GGGTTCACGTGTGTAT: 0.34 kcal/mol; GTTGTCACGTGCGTTT: 0.18 kcal/mol. To CCGGGCACGTGGCCGG belongs -0.17 kcal/mol; to GTATGCACGTGGCGAG, -0.1 kcal/mol.

Turning to GTTGTCACGTGAAGGT, the “relative binding free energy” value was 0.31 kcal/mol. For the sequence ATCGGCACGTGGTGGT, the “relative binding free energy” value is -0.15 kcal/mol.

On to TTGAACACGTGTGTGA, for which the “relative binding free energy” value came out at 0.08 kcal/mol. Next, CGTAGCACGTGTGAGT: 0.01 kcal/mol. With AAAAGCACGTGGATGT, the “relative binding free energy” value was -0.11 kcal/mol. To GGCAACACGTGCGTGG belongs 0 kcal/mol; to CGAGGCACGTGATGAT, 0.17 kcal/mol; to TCATGCACGTGGTGCT, -0.18 kcal/mol.

For TTTGTCACGTGACCGG, the “relative binding free energy” value amounted to 0.06 kcal/mol. To GAGAGCACGTGAGGGG belongs 0.11 kcal/mol. To AAGTTCACGTGTTATA belongs 0.22 kcal/mol; to TCAGACACGTGAGGTT, 0.22 kcal/mol. Next, GGTAGCACGTGTTTGT: 0.03 kcal/mol; AGGTTCACGTGACGCG: 0.45 kcal/mol; CGAGGCACGTGTGTGA: 0.03 kcal/mol. Take CGGCGCACGTGGGGCT: the “relative binding free energy” value is -0.27 kcal/mol.

As for AGAGGCACGTGGCAGG, the “relative binding free energy” value was -0.21 kcal/mol. Take AGTGTCACGTGTGTAT: the “relative binding free energy” value turned out to be 0.08 kcal/mol. Consider ATAAGCACGTGGGTCT, for which the “relative binding free energy” value was -0.22 kcal/mol. As to CGTTTCACGTGGCTGT, the “relative binding free energy” value is 0.11 kcal/mol.

In the case of AGCCGCACGTGTAGGG, the “relative binding free energy” value is -0.14 kcal/mol. With TTGGTCACGTGGATAG, the “relative binding free energy” value was determined as 0.17 kcal/mol. To CAATTCACGTGATGTA belongs 0.42 kcal/mol; to CGCTGCACGTGGGATG, -0.06 kcal/mol; to TCTTACACGTGTCGGG, 0.23 kcal/mol.

In the case of ATGGACACGTGTGGAT, the “relative binding free energy” value is 0.12 kcal/mol.

TGTAGCACGTGGACTT: the “relative binding free energy” value was -0.13 kcal/mol. Next, TGTCACACGTGTGTGG: 0.08 kcal/mol; ATCGACACGTGGAGGG: -0.05 kcal/mol; GTGAACACGTGGTATG: -0.07 kcal/mol. To GAATGCACGTGTGGAG belongs -0.01 kcal/mol; to CGCAGCACGTGGGGGG, -0.24 kcal/mol; to TTAGGCACGTGGGTGT, -0.19 kcal/mol. To TGATTCACGTGGTGTC belongs 0.28 kcal/mol. Consider CATTTCACGTGAATGT, for which the “relative binding free energy” value worked out at 0.41 kcal/mol.

As to GCTAGCACGTGGGGTT, the “relative binding free energy” value is -0.21 kcal/mol.
